# Test results taken from PubChem BioAssay AID1346428 (National Center for Advancing Translational Sciences (NCATS), 2018).
# Among all 48,000 compounds or so, about 1,200 (2.5%) were called active. Not shown: some 2% with an inconclusive outcome.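 The calls were made as follows: active = activation of at least 60% and not above a set upper limit (about 1 call in 100 departs from these limits); inconclusive = activation of 40% to 60%, or above that upper limit; inactive = activation under 40%.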 The list shows a part of the results.
# Target: Probable G-protein coupled receptor 32 (Homo sapiens) (UniProt O75388)
# Experiment: qHTS for Agonists of Human Resolvin D1 Receptor DRV1; also: 0% is about no effect
# Details: CHO-K1 GPR32 beta-arrestin PathHunter luminescence, 90 min; at 76.9 µM; active compounds read high; zero percent set by DMSO-only wells
# Method in brief: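 CHO-K1 cells stably expressing ProLink-tagged GPR32 and Enzyme Activator-tagged beta-arrestin were seeded at 2,500 cells/well overnight, exposed to compounds for 90 min at 37 °C, then read by beta-Gal complementation chemiluminescence after 1 h detection reagent.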
# UniProt O75388, sequence (O75388 whole entry, looked up): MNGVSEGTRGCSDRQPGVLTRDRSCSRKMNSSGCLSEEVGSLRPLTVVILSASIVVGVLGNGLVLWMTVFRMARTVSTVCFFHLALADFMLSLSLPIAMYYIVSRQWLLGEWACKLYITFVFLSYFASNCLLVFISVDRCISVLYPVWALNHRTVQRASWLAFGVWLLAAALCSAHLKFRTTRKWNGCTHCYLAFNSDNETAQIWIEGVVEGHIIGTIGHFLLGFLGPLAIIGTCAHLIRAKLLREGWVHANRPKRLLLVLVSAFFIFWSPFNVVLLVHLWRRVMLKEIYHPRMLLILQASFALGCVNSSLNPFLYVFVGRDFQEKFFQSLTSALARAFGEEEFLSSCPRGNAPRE
row,SMILES,activation
1,COC1=C(OC)C(=O)C(CCCCCCCCCCO)=C(C)C1=O,inactive: 46.3%
2,CC(C)n1c(/C=C/[C@@H](O)C[C@@H](O)CC(=O)O)c(-c2ccc(F)cc2)c2ccccc21,inactive: 39.1%
3,Cn1c(=O)c2sccc2n2c(CCCC(=O)Nc3ccc(Cl)cc3)nnc12,inactive: -3.71%
4,CCC(=O)Nc1ccccc1-c1nc2ccccc2n(Cc2cccc(Br)c2)c1=O,inactive: -15.6%
5,COc1ccc(CN2CCCN(CC(=O)Nc3cc(C)ccc3C)S2(=O)=O)cc1,inactive: 2.26%
6,CCOC(=O)c1sc(N2C(=O)c3oc4cc(C)c(C)cc4c(=O)c3C2c2ccc(C)cc2)nc1C (centres undefined),inactive: 8.9%
7,O=C(Nc1ccccc1Cl)c1ccc(F)c(S(=O)(=O)NCc2ccc(Cl)c(Cl)c2)c1,inactive: -10.5%
8,CCc1ccc2oc(C(=O)NCC(c3ccc(Cl)cc3)N3CCOCC3)c(C)c2c1 (centres undefined),inactive: -19.1%
9,CC(=O)N1CCCc2cc(S(=O)(=O)N(CCN(C)C)Cc3ccccc3)ccc21,inactive: -6.39%
10,CCOC(=O)c1c(C)oc2nc(C)nc(Nc3cc(C)cc(C)c3)c12,inactive: 4.63%
11,Cc1ccc(-n2ncc3c(N4CCCCC4)ncnc32)cc1Cl,inactive: 13.9%
12,CCc1cccc(C)c1NC(=O)c1cc(S(=O)(=O)N(C)Cc2ccccc2)ccc1F,inactive: -0.585%
13,COc1ccc(-c2cc(OC(=O)c3ccccc3C)c3c(C)oc(C)c3c(=O)c2)cc1,inactive: -13.8%
14,O=C1CCC(c2ccc(-n3ccnc3)cc2)=NN1,inactive: 3.3%
15,O=C(CSc1nc2ccccc2n1Cc1ccc(F)cc1)N1CCN(c2ccc(F)cc2)CC1,inactive: -14.4%
16,Cc1csc2nc(COC(=O)c3ccc(F)cc3)cc(=O)n12,inactive: -7.66%
17,COc1ccc(CNC(=O)C2CCCN(C(=O)c3cnn(-c4ccc(F)cc4)c3-n3cccc3)C2)cc1 (centres undefined),inactive: 47.7%
18,CC1CCCCN1Cc1c(O)ccc2c(=O)c(-c3ccc(Cl)cc3)coc12 (centres undefined),inactive: -3.46%
19,Cc1ccc(CNC(=O)c2cc(=O)c3cc(C)c(C)cc3o2)cc1,inactive: 12.2%
20,CCOC(=O)c1c(-c2ccc(Br)cc2)csc1NC(=O)c1ccc(C(C)(C)C)cc1,inactive: 6.82%
21,CCOc1cccc2sc(NC(=O)c3ccc(S(=O)(=O)N4CCCCC4)cc3)nc12,inactive: -29%

row,SMILES,activation
1,Cc1nc2c(-c3ccccc3)c(C)[nH]n2c(=O)c1Cc1ccc(Br)cc1,inactive: -8.86%
2,COc1ccc(NC(=O)c2cc(=O)c3cc(C)cc(C)c3o2)cc1,inactive: -10.3%
3,CCOc1ccc(CC(=O)NCCc2sc(-c3cccc(F)c3)nc2C)cc1,active: 68.9%
4,O=C(NCCS(=O)(=O)N1CCN(c2ccc(F)cc2)CC1)c1ccccc1Br,inactive: -17.8%
5,CC(=O)Nc1cccc(NC(=O)CSc2cn(CC(=O)N3CCCC3)c3ccccc23)c1,inactive: -11.9%
6,COc1ccc(NC(=O)c2cc3c(=O)n(C)c4cc(Cl)ccc4c3s2)cc1Cl,inactive: -18%
7,CC(CNc1nc2ccccc2c2nc(-c3ccccc3)nn12)c1ccccc1 (centres undefined),inactive: -4.77%
8,Cc1ccc(CCNC(=O)c2oc(=O)c3ccccc3c2-c2ccc(C)cc2)cc1,inactive: -9.83%
9,CCCS(=O)(=O)c1nc(S(=O)(=O)c2ccc(C)cc2)c(NCC(C)C)s1,inactive: -26.2%
10,CC1CCN(S(=O)(=O)c2ccc3c(ccc(=O)n3CC(=O)NCc3ccccc3)c2)CC1,inactive: -15%
11,CC(C)(C)OC(=O)N1CCC(c2c(C(=O)NCc3ccco3)cnn2-c2ccc(F)cc2F)CC1,inactive: -9.9%
12,CCC(=O)Nc1ccc(C)cc1-c1nc2ccccc2n(CC(=O)c2ccc(C)cc2)c1=O,inactive: -10.5%
13,CCc1ccc(-n2c(=O)c3c(C)c(C(=O)N(C)C)sc3n(CC(=O)Nc3cc(Cl)ccc3C)c2=O)cc1,inactive: -1.23%
14,CCOC(=O)c1c(C)c(C(=O)NCc2ccc(Cl)cc2)c(C)n1C,inactive: -11.8%
15,COc1ccccc1NC(=O)C1=C(C)Nc2nc(-c3ccco3)nn2C1c1cccc(C)c1 (centres undefined),inactive: -32%
16,Cc1noc2ncnc(N3CCCC(C(=O)Nc4cc(F)ccc4F)C3)c12 (centres undefined),inactive: 33.6%
17,CCCCNC(=O)Cn1c(=O)cc(C)c2c(C)nn(-c3cccc(Cl)c3C)c21,inactive: 8.05%
18,CC(=O)c1ccc(NC(=O)COc2ccccc2-c2nc(C(C)C)no2)cc1,inactive: -4.24%
19,CCOC(=O)c1c(C)[nH]c(C)c1S(=O)(=O)NCC(=O)Nc1cc(Cl)ccc1OC,inactive: -14.7%
20,O=C(COc1ccccc1)Nc1nnc2n1CCS2,inactive: -19.8%
21,COc1ccc(C)cc1Nc1c2c(nc3ccccc13)CCC2,inactive: 2.03%

row,SMILES,activation
1,CCOC(=O)C1CCN(S(=O)(=O)c2cc(-c3cc(C)no3)ccc2OC)CC1,inactive: -11%
2,CC(C)(C)C(=O)Cn1c(=O)n(CCCCCC(=O)NCc2ccccc2Cl)c(=O)c2sccc21,inactive: -16.7%
3,Cc1ccc(NC(=O)C(Cc2ccccc2)NS(=O)(=O)c2ccc3c(c2)oc(=O)n3C)cc1C (centres undefined),inactive: 4.78%
4,CC(=O)c1ccc(N2CCN(C(=O)Nc3cn(CC(C)C)c(=O)c4ccccc34)CC2)cc1,inactive: -23%
5,COc1cc(OC)cc(-c2nc3nc(C)c(CCC(=O)Nc4ccccc4)c(C)n3n2)c1,inactive: 25.9%
6,O=C(CSc1nc(-c2ccco2)nc2cc(=O)[nH]n12)Nc1ccc(F)cc1,inactive: 45.3%
7,Cc1ccc(C)c(NC(=O)CSc2nnc(NC(=O)Nc3ccccc3)s2)c1,inactive: -1.57%
8,CCc1ccc(NC(=O)Cn2c(C(=O)OC)cc3oc(C)cc32)cc1,inactive: -38.8%
9,COc1ccc(C2CC(=O)Nc3cc4c(cc32)OCO4)c(OC)c1 (centres undefined),inactive: -12.1%
10,CCN1CCN(Cc2nc3cc(NC(=O)c4cccc([N+](=O)[O-])c4)ccc3n2CC)CC1,inactive: -5.32%
11,COc1ccc(CCNC(=O)c2nc(SCc3ccc(F)cc3)ncc2Cl)cc1OC,inactive: -24.1%
12,CCOC(=O)N1CCC(NC(=O)c2ccc3c(c2)N(Cc2ccc(F)cc2)C(=O)c2ccccc2S3=O)CC1 (centres undefined),inactive: -10.7%
13,Cc1ccccc1OCC(=O)Nc1ccc2[nH]c(=O)sc2c1,active: 109%
14,CCc1ccc(C2CC(=O)c3c([nH]c(C(=O)OC4CCCCCC4)c3C)C2)cc1 (centres undefined),inactive: -4.92%
15,COc1ccc(NC(=O)CN2CCN(C3CCCCC3)C(=O)C2=O)cc1,inactive: 0.499%
16,Cc1ccc(CCNC(=O)C(C)n2nc(C)c3c(C)n(-c4ccc(C)cc4)nc3c2=O)cc1 (centres undefined),inactive: 47.3%
17,CCCCCCC(=O)Nc1cc2nc3c(nc2cc1C)c(=O)n(C)c(=O)n3C,inactive: 7.16%
18,COc1cc(Cl)c(C)cc1NC(=O)c1c(C)oc2nc(C)nc(N3CCCC3)c12,inactive: -23.3%
19,Cc1noc(-c2ccc(N3CCCCC3C)c([N+](=O)[O-])c2)n1 (centres undefined),inactive: -19.4%
20,O=C1CCCc2cc(S(=O)(=O)N3CCCC(C(=O)NCc4ccccc4Cl)C3)ccc2N1 (centres undefined),inactive: 38.7%
21,CCc1nnc(NC(=O)CSc2nccn2Cc2ccccc2)s1,inactive: -8.19%

row,SMILES,activation
1,O=C(Cn1c(-c2cccs2)cc2ccccc21)NCCCN1CCN(c2cccc(Cl)c2)CC1,inactive: -21.7%
2,Cc1ccc(-c2noc(-c3nnn(CC(=O)Nc4ccc(C)cc4Cl)c3N)n2)cc1,inactive: -2.57%
3,Cc1ccc(-n2c(=O)c3oc4ccccc4c3n(Cc3ccccc3)c2=O)cc1C,inactive: -9.71%
4,Cc1cc(C)cc(NS(=O)(=O)c2ccc3[nH]cc(C(=O)N4CCCCC4)c(=O)c3c2)c1,inactive: -10.1%
5,CCC(=O)N1CCc2cc(CNS(=O)(=O)c3ccccc3F)ccc21,inactive: 0.391%
6,COc1cc(C(=O)Nc2sc3c(c2C#N)CCCC3)c(Br)c(OC)c1OC,inactive: 7.76%
7,Cc1ccc(NC(=O)CCc2nc(-c3ccccc3F)no2)c(C)c1,inactive: -26.2%
8,CCOc1cc2c(cc1OCC)C(CC(=O)OC)N(C(=O)Nc1cc(C)cc(C)c1)CC2 (centres undefined),inactive: -8.69%
9,COc1cccc(CNC(=O)C(Cc2ccccc2)NS(=O)(=O)c2ccc3c(c2)CCN3C(C)=O)c1 (centres undefined),inactive: 26.8%
10,CCOc1ccccc1CNC(=O)c1ccc2c(c1)N(CC)CCS2,inactive: -29.2%
11,Cc1ccc(-n2nc(C(=O)NC(C)C)c(=O)n(C)c2=O)cc1,inactive: 3.13%
12,CS(=O)(=O)c1ncc(Cl)c(C(=O)N(Cc2ccc(Cl)cc2)Cc2ccco2)n1,inactive: -22.2%
13,Cc1cccc(OCC(=O)Nc2nnc(S(=O)(=O)N3CCCCCC3)s2)c1,inactive: 24.9%
14,CCCCCCCCCCCCCCCC[N+](C)(C)CC,inactive: -6.81%
15,Cc1cc(Cl)ccc1NC(=O)C1CCCN1S(=O)(=O)c1ccc2c(c1)CCCC(=O)N2 (centres undefined),inactive: 14%
16,Cc1ccc(-c2noc(-c3ccc(NC4CCCC4)c([N+](=O)[O-])c3)n2)cc1,inactive: -15.9%
17,Cc1cc(-n2c(SCc3ccccc3F)nc3[nH]ncc3c2=O)ccc1Cl,inactive: -24.7%
18,CCc1c(C)sc2c1CCN(C(=O)Nc1ccccc1Cl)C2c1ccc(OC)cc1 (centres undefined),inactive: 23%
19,CC(C)(C)OC(=O)N1CCC(c2nnc(SCc3ccccc3Cl)o2)CC1,inactive: -3.94%
20,COc1ccc(Cl)cc1NC(=O)C(C)n1c(=O)cc(C(F)(F)F)c2c(C)nn(C)c21 (centres undefined),inactive: -7.78%
21,CS(=O)(=O)c1ncc(N(Cc2ccco2)Cc2cccs2)c(C(=O)Nc2ccccc2F)n1,inactive: -26.1%
